Measured values reported in PubChem BioAssay AID504332 (National Center for Advancing Translational Sciences (NCATS), 2011).
Out of some 350,000 compounds screened, about 31,000 (8.9%) were called active. The inconclusive results got no clear call from the source; some entries with a clear call stand among them for comparison. Calls follow the shape of the dose curve; as a rule, active = well fitted inhibition curve with a large enough effect; inconclusive = small, poorly fitted or top-dose-only effect; inactive = no such curve, though single readings can be large or run the other way. Where the call is inconclusive, the potency comes from a doubtful curve fit.

molecular target: Histone-lysine N-methyltransferase EHMT2 (Homo sapiens) (UniProt Q96KQ7); assay: qHTS Assay for Inhibitors of Histone Lysine Methyltransferase G9a; settings: G9a H3K9 monomethylation, AlphaScreen, 2 h; activity, negative = inhibition: at 59 µM (top of the series) unless noted; also: nearly all actives have a fitted effect of over 75% in size
Chain of UniProt Q96KQ7 (Q96KQ7 whole entry, looked up): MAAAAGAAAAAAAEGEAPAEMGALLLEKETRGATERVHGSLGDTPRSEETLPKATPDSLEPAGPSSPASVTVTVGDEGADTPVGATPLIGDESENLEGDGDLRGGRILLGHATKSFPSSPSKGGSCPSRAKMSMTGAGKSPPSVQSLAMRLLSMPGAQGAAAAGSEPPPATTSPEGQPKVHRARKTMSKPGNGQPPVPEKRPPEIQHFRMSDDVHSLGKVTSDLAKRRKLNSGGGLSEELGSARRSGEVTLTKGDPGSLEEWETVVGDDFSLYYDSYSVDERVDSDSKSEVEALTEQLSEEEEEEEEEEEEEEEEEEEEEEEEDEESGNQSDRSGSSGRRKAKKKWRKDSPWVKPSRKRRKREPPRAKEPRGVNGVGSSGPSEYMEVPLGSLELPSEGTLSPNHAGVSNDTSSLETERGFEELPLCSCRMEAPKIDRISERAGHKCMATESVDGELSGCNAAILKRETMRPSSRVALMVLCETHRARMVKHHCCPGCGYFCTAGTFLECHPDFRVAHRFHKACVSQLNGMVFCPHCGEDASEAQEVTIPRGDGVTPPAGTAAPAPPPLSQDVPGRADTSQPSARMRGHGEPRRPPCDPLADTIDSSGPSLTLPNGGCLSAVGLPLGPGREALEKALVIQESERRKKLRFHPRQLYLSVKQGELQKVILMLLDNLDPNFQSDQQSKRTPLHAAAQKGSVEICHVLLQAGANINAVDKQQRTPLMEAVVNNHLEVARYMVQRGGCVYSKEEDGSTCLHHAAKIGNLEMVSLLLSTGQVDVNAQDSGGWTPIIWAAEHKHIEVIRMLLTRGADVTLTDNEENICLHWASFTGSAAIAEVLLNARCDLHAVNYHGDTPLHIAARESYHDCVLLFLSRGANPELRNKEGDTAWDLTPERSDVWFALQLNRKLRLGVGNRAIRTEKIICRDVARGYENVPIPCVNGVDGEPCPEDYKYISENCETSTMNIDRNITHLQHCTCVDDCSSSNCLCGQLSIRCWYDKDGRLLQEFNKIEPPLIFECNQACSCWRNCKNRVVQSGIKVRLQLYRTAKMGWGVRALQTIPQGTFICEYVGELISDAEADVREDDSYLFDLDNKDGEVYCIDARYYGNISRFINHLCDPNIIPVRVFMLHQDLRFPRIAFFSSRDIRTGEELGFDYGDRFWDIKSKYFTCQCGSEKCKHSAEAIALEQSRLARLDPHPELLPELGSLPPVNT
Procedure, shortened: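 AlphaScreen detection with an anti-monomethyl H3K9 antibody quantified product after a 2 h room-temperature reaction containing 500 nM biotinylated H3K9 peptide, 20 µM SAM and 20 nM enzyme, which had been preincubated 15 min with compound.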
% is scaled to controls: 0 for no effect and ±100 for the full control effect; potency is read from the fitted curve at half-maximal effect; tags tell the direction and shape of the fitted curve.

Row | Compound | activity, negative = inhibition | Potency
1 | CCOc1ccccc1CNC(=O)c1ccc2c(c1)N(Cc1ccc(C)cc1)CCS2 | inactive: -2.04% | –
2 | Cc1csc(=O)n1CC(=O)Nc1ccc(C(C)C)cc1 | – | inconclusive: 15.8 µM [inhibitor, full curve]
3 | O=C1CC(Sc2nnnn2C2CCCCC2)C(=O)N1c1ccccc1 (configuration not stated) | – | active: 10 µM
4 | N#Cc1nc(-c2ccc(F)cc2)oc1NCc1ccccc1 | – | inconclusive: 79.4 µM [inhibitor, single point]
5 | COc1cc(C(=O)NCCCc2nc3ccccc3n2Cc2cc(C)ccc2C)cc(OC)c1OC | – | inconclusive: 44.7 µM [inhibitor, partial curve, poor fit]
6 | Cc1ccc(S(=O)(=O)Nc2ccc(N3CCOCC3)cc2)cc1[N+](=O)[O-] | – | inconclusive: 39.8 µM [inhibitor, partial curve]
7 | O=C(CCC1N=C2c3ccccc3N=C(SCc3ccc(F)cc3)N2C1=O)NCCc1ccccc1 (configuration not stated) | inactive: -0.224% | –
8 | COc1ccc(-c2noc(N3CCC(C(=O)Nc4cccc(OC)c4)CC3)n2)cc1 | inactive: 43.1% [at 102 µM] | –
9 | CC(C)OCCCn1c(=NC(=O)c2cccs2)c(C#N)cc2c(=O)n3ccccc3nc21 | – | inconclusive: 50.1 µM [inhibitor, partial curve, poor fit]
10 | O=C(NC(=S)NC(CO)c1ccccc1)c1ccc(F)cc1 (configuration not stated) | – | inconclusive: 79.4 µM [inhibitor, single point]
11 | CCc1ccccc1NS(=O)(=O)c1ccc2c(c1)CC(=O)N2 | inactive: 10.6% | –
12 | Cc1ccc(OCCCC(=O)NCc2ccco2)c(C)c1 | – | inconclusive: 50.1 µM [inhibitor, partial curve, poor fit]
13 | O=C(NCc1cccc(CNC(=O)C(=O)NCc2ccco2)c1)C(=O)NCc1ccco1 | – | inconclusive: 89.1 µM [inhibitor, partial curve, poor fit]
14 | COCCNC(=O)c1ccc(C(=O)NCCOC)s1 | inactive: 9.92% [at 12.7 µM] | –
15 | Cc1ccc(S(=O)(=O)c2ccc(NN)cc2)cc1 | – | active: 8.91 µM
16 | CCOc1ccc(N(CC(=O)NCCCOC)S(C)(=O)=O)cc1 | inconclusive: -65.7% [inhibitor] [at 2.33 µM] | –
17 | COC(=O)c1cn(C)c2ccc(S(=O)(=O)N3CCCCC3)cc2c1=O | – | inconclusive: 89.1 µM [inhibitor, single point]
18 | COc1ccccc1NC(=O)c1c(NCc2ccc(C)o2)sc2c1CCCCC2 | – | active: 1.26 µM
19 | CCOC(=O)N1CCc2c(sc3c2C(=O)NC(c2cc(OC)c(OC)c(OC)c2)N3)C1 (configuration not stated) | – | inconclusive: 39.8 µM [inhibitor, partial curve, poor fit]
20 | COc1ccc(Cl)cc1Nc1nc(NCCO)nc(N2CCCC2)n1 | – | inconclusive: 20 µM [inhibitor, partial curve, poor fit]
21 | CCOC(=O)c1cc(S(=O)(=O)Nc2cc(F)ccc2C)[nH]n1 | – | active: 17.8 µM
22 | CC(=O)c1c(C)nc2ccc(C)cc2c1-c1ccccc1 | – | inconclusive: 7.08 µM [inhibitor, single point]
23 | CC(C)NC(=O)c1sc2nc(-c3cccs3)cc(-c3cccs3)c2c1N | – | inconclusive: 79.4 µM [inhibitor, single point]
24 | CC(C)NS(=O)(=O)c1ccc(OCC(=O)N2CCc3ccccc3C2)cc1 | inactive: 5.02% [at 102 µM] | –

Row | Compound | activity, negative = inhibition | Potency
25 | COc1cc(/C=N/NC(=O)C(Cc2c[nH]c3ccccc23)NC(=O)OCc2ccccc2)cc([N+](=O)[O-])c1O (configuration not stated) | – | active: 8.91 µM
26 | O=C(CSc1ccccc1C(=O)O)NC1CCCCCCC1 | inactive: -38.7% | –
27 | Cc1ccc2ncnc(Nc3cccc(C(=O)O)c3)c2c1 | – | inconclusive: 79.4 µM [inhibitor, single point]
28 | Cc1ccc(C(=O)NCN2CCN(c3ccccc3)CC2)cc1 | – | inconclusive: 56.2 µM [inhibitor, partial curve, poor fit]
29 | COc1ccc(NC2=CC(c3ccc(OC)cc3)N(c3ccc(OC)cc3)C2=O)cc1 (configuration not stated) | – | inconclusive: 2 µM [inhibitor, partial curve, poor fit]
30 | O=C(CN1CCN(Cc2ccccc2)CC1)Nc1ccc(Cl)cn1 | inconclusive: -64.6% [inhibitor] | –
31 | CCCCOC(=O)Nc1ccc(C(N)=O)cc1 | inactive: 7.19% | –
32 | Cc1cc(NC(=O)Cn2nc(C(=O)O)c3ccccc3c2=O)ccc1Br | inactive: -4.88% [at 102 µM] | –
33 | S=C(NCCCc1cnc[nH]1)NCCCN(Cc1ccc(Cl)c(Cl)c1)c1ccc(Br)cn1 | – | active: 25.1 µM
34 | Cn1cnnc1SCc1ccc(C(=O)n2ncc(C#N)c2N)cc1 | – | inconclusive: 7.08 µM [inhibitor, single point]
35 | CCOc1ccc(C2C=C(c3ccccc3)Nc3ncnn32)cc1 (configuration not stated) | – | inconclusive: 50.1 µM [inhibitor, partial curve, poor fit]
36 | COc1ccc(-n2c(=O)c3c(c4cc(OC)ccc4n3C)n(Cc3cccc(C)c3)c2=O)cc1 | inactive: 2.9% | –
37 | CCOc1ccc(OCCC(=O)NNC(=O)c2nn(C)c(=O)c3ccccc23)cc1 | – | inconclusive: 100 µM [inhibitor, single point]
38 | Cc1cc(C)c(C(=O)N2CCCC(CNS(=O)(=O)c3cccs3)C2)o1 (configuration not stated) | inactive: -2.07% [at 102 µM] | –
39 | Brc1ccc(-c2cnnc(N3CCCC3)n2)cc1 | – | active: 70.8 µM
40 | Cc1ccc(C(=O)N2CCN(c3ccccn3)CC2)cc1 | inactive: -2.61% [at 102 µM] | –
41 | Cn1c(=O)c2[nH]c(SCC(=O)c3ccc(F)cc3)nc2n(C)c1=O | – | inconclusive: 50.1 µM [inhibitor, partial curve, poor fit]
42 | CCC(C)NC(=O)/C=C/c1cccs1 (configuration not stated) | inactive: 31.9% | –
43 | Cc1cc(C(=O)COC(=O)c2ccc([N+](=O)[O-])o2)c(C)n1CC1CCCO1 (configuration not stated) | – | active: 44.7 µM
44 | CCOc1ccc(/C=C(\C#N)C(=O)NCC2CCCO2)cc1OCC (configuration not stated) | – | inconclusive: 28.2 µM [inhibitor, single point]
45 | O=C(CSc1nnc(-c2ccco2)n1CC1CCCO1)c1ccccc1 (configuration not stated) | – | active: 50.1 µM
46 | CCOC(=O)c1c(C)[nH]c(C)c1S(=O)(=O)N1CCCC(C(=O)NCc2ccc(N(C)C)cc2)C1 (configuration not stated) | – | inconclusive: 25.1 µM [inhibitor, single point]
47 | CC(C)CC(=O)Nc1nnc(S(=O)(=O)N(C)Cc2ccc(Cl)cc2)s1 | inactive: 5.11% | –
48 | COc1ccc(-n2cc(C(=O)NCCc3cc(OC)ccc3OC)c3ccccc3c2=O)cc1 | – | inconclusive: 7.08 µM [inhibitor, partial curve, poor fit]

Row | Compound | activity, negative = inhibition | Potency
49 | CCC(C(=O)Nc1cccc(-c2nc3cccnc3s2)c1C)c1ccccc1 (configuration not stated) | inactive: 8.59% | –
50 | O=C1OC(c2ccc3c(c2)OCO3)=N/C1=C\c1ccc(C(=O)O)cc1 | – | active: 39.8 µM
51 | NC(=O)CC(NC(=O)Cc1ccc(Cl)cc1)c1ccc(NCCN2CCOCC2)c([N+](=O)[O-])c1 (configuration not stated) | – | inconclusive: 79.4 µM [inhibitor, single point]
52 | Cn1c(CNC(=O)Nc2cccc(Cl)c2)nnc1SCc1ccccc1 | – | inconclusive: 89.1 µM [inhibitor, single point]
53 | O=C(COc1ccccc1)NNC(=O)COc1ccc([N+](=O)[O-])cc1 | – | inconclusive: 89.1 µM [inhibitor, partial curve, poor fit]
54 | CCc1c(C)sc2nc3c(C(=O)N4CCOCC4)cc(C(=O)c4cc(F)ccc4O)cn3c(=O)c12 | – | inconclusive: 28.2 µM [inhibitor, full curve]
55 | CCOC(=O)c1oc2ccccc2c1CN1CCN(C)CC1 | – | inconclusive: 31.6 µM [inhibitor, single point]
56 | O=C(O)c1cc([N+](=O)[O-])c(N2CCCC2)c([N+](=O)[O-])c1 | – | active: 8.91 µM
57 | O=C(CCOc1ccccc1)N(Cc1cccnc1)c1nc2ccc(Cl)cc2s1 | inactive: -3.53% | –
58 | Cc1cccc(NC2=C/C(=N/S(=O)(=O)c3cccs3)c3ccccc3C2=O)c1 | – | inconclusive: 2.82 µM [inhibitor, full curve, poor fit]
59 | CCN1CCN(c2ccc(S(=O)(=O)N3CCCCC3)cc2NC(=O)c2sccc2C)CC1 | – | active: 2.24 µM
60 | Cn1c(SCc2nc(-c3ccc(Cl)cc3)no2)nnc1-c1ccco1 | – | inconclusive: 89.1 µM [inhibitor, single point]
61 | Fc1ccc(Sc2ccccc2CNC2=NCCN2)cc1 | – | active: 6.31 µM
62 | CC(C)(C)OC(=O)NCCC(=O)N/N=C/c1cccc2nccnc12 | – | inconclusive: 17.8 µM [inhibitor, partial curve]
63 | S=C(NCc1ccccc1)NCc1ccccc1Cl | inactive: -7% [at 102 µM] | –
64 | CC(C)(CN1CCc2ccccc2C1)NS(=O)(=O)c1ccccc1 | – | active: 10 µM
65 | O=C(CSc1nc2ccccc2s1)NC1CCS(=O)(=O)C1 (configuration not stated) | inconclusive: -75.8% [inhibitor] | –
66 | CCOC(=O)N1CCC(NC(=O)c2ccc3c(c2)sc2nc(-c4ccc(OC)cc4)cn23)CC1 | inactive: -24.3% [at 102 µM] | –
67 | Cc1[nH]c2ccccc2c1/C=N/Nc1ccc([N+](=O)[O-])cc1S(=O)(=O)Nc1ccc(Cl)cc1 | – | inconclusive: 7.94 µM [inhibitor, partial curve, poor fit]
68 | O=S(=O)(Nc1ccc2c(c1)OCO2)c1ccccc1 | – | active: 14.1 µM
69 | CN(C)CCNc1nc2sc3c(c2c(=O)n1Cc1ccccc1)CCCCC3 | – | inconclusive: 79.4 µM [inhibitor, single point]
70 | O=C(Nc1ccc(Br)cc1F)c1cc(S(=O)(=O)NC2CCCCC2)ccc1F | – | inconclusive: 25.1 µM [inhibitor, single point]
71 | N#Cc1c(/N=C/N2CCCC2)oc(-c2ccccc2)c1-c1ccccc1 | – | inconclusive: 15.8 µM [inhibitor, partial curve, poor fit]
72 | O=C(CSC1=NCCS1)c1ccc(Cl)cc1 | inactive: -46.6% [at 102 µM] | –
